Several values for one entry are separate records, joined by “and”; a condition that tells them apart may be missing. Equal values may be shown once. Inconclusive means that the source gave no clear call. Such entries were picked first, then a sample of the others. Where the call is inconclusive, the potency comes from a doubtful curve fit. Some structures have more than one record in an assay (separate samples or runs), and their calls can disagree. Activity calls are given as the source filed them. Calls follow the shape of the dose curve; as a rule, active = well fitted curve in the direction sought with a large enough effect in the repeat runs; inconclusive = weak or mixed curves; inactive = no such curve, though single readings can be large; an effect the other way counts as inactive or inconclusive.
Assay: qHTS RealTime-Glo MT Cell Viability Assay in HEK293 cells - 32 hour (AID 1224868); as to activity change, negative = cytotoxic: top concentration of the series differs between compounds
Conditions: RealTime-Glo luminescence; series mostly up to 76.8 µM
Procedure, shortened: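 Assay medium contained NanoLuc luciferase plus cell-permeant prosubstrate, added with HEK293 cells at 600 cells/well. After 5 h at 37 C/5% CO2 compounds were added; plates stayed at 37 C for 40 h with serial luminescence reads.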
% is scaled to controls: 0 for no effect and ±100 for the full control effect; potency is read from the fitted curve at half-maximal effect; tags tell the direction and shape of the fitted curve.
Also: nearly all actives have a fitted effect of over 50% in size.

Row | Compound | Potency | activity change, negative = cytotoxic
1 | O=C(O)c1cn(-c2ccc(F)cc2)c2cc(N3CCNCC3)c(F)cc2c1=O | inactive | 
2 | CCn1c2ccccc2c2ccccc21 | inactive | 
3 | Cc1ccccc1N=O | inactive | 
4 | O=C1CCC(C2CCCCC2)CC1 | inconclusive: 0.0039 µM [cytotoxic, full curve, poor fit] | 
5 | O=C1CCCCCO1 | inactive | 
6 | CN1CCN(CC(=O)N2c3ccccc3C(=O)Nc3cccnc32)CC1 |  | inactive: 5.96% [at 6.97 µM]
7 | COc1c2occc2cc2ccc(=O)oc12 | inconclusive: 23.9 µM [cytotoxic, partial curve, poor fit] | 
8 | Nc1ccn([C@H]2CC[C@@H](CO)O2)c(=O)n1 | inactive | 
9 | O=C(NC1CCN(CCc2c[nH]c3ccccc23)CC1)c1ccccc1 | active: 7.56 µM | 
10 | CCC(=O)O[C@@H]1C[C@H]2CC[C@]1(C)C2(C)C | inactive | 
11 | CCCC(=O)OCc1ccccc1 | inactive | 
12 | CC(=O)OCC(=O)[C@@]12OC(C)(C)O[C@@H]1C[C@H]1[C@@H]3C[C@H](F)C4=CC(=O)C=C[C@]4(C)[C@@]3(F)[C@@H](O)C[C@@]12C | inconclusive: 21.3 µM [cytotoxic, partial curve, poor fit] | 
13 | O=C(NCC1CCCCN1)c1cc(OCC(F)(F)F)ccc1OCC(F)(F)F (configuration not stated) | inconclusive: 38.2 µM [cytotoxic, partial curve] | 
14 | C/C(Cl)=C/CCl | inactive | 
15 | COC(=O)c1cc(Cl)ccc1NS(=O)(=O)C(F)(F)F | inactive | 
16 | CCCOc1ccccc1-c1nc2n[nH]nc2c(=O)[nH]1 | inconclusive: 21.3 µM [cytotoxic, partial curve, poor fit] | 
17 | CC(=O)OCC(=O)[C@H]1CC[C@H]2[C@@H]3CCC4=CC(=O)CC[C@]4(C)[C@H]3CC[C@]12C | inconclusive: 26.8 µM [cytotoxic, single point] | 

Row | Compound | Potency | activity change, negative = cytotoxic
18 | CC(C)=CCC[C@H](C)CC=O | inactive | 
19 | CN1[C@@H]2CC[C@H]1CC(OC(=O)C(CO)c1ccccc1)C2 (some centres not stated) | inconclusive: 49.2 µM [rising, partial curve, poor fit] | 
20 | OCc1ccccn1 | inactive | 
21 | C=CCCCCCCCCC(=O)OCC | inactive | 
22 | CC[N+]1(CC)CCC(=C(c2ccccc2)c2ccccc2)C1C (configuration not stated) | inconclusive: 26.8 µM [cytotoxic, single point] | 
23 | Nc1ccnc(=O)[nH]1 | inactive | 
24 | C=CCSSCCC | inconclusive: 61.4 µM [rising, single point] | 
25 | Cc1nnc(C(=O)NC(C)(C)c2nc(C(=O)NCc3ccc(F)cc3)c(O)c(=O)n2C)o1 | inconclusive: 16.9 µM [rising, partial curve, poor fit] | 
26 | COc1cc2nc(Cl)nc(N)c2cc1OC | inconclusive: 10.7 µM [cytotoxic, single point] | 
27 | CCCS(=O)c1ccc2nc(NC(=O)OC)[nH]c2c1 (configuration not stated) | inconclusive: 9.52 µM [cytotoxic, partial curve] | 
28 | CCNc1nc(NC(C)(C)C)nc(OC)n1 | inconclusive: 54.9 µM [cytotoxic, single point] | 
29 | CCOCCOCCOCCO | inactive | 
30 | C/C=C/C(=O)CC |  | inactive: 1.19% [at 15.8 µM]
31 | CCN(CC)CC(=O)Nc1c(C)cccc1C | inconclusive: 9.52 µM [cytotoxic, partial curve] | 
32 | CC(C)OC(=O)CCC(=O)OC(C)C | inactive | 
33 | O=C1CCCC1 | inactive | 
34 | CCOc1ccc(NS(=O)(=O)c2ccc(N)cc2)nn1 | inconclusive: 0.0756 µM [cytotoxic, partial curve, poor fit] | 

Assay: A CellTox Green Cytotoxicity Assay to monitor cytotoxicity in HEK293 cells - 0 hour (AID 1224869)
Conditions: CellTox Green fluorescence; series mostly up to 76.8 µM
Procedure, shortened: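 Homogeneous no-lysis format: HEK293 cell suspension mixed with CellTox Green reagent, seeded, incubated 5 h at 37 C/5% CO2, then dosed by pintool with compound in DMSO.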

Row | Compound | Potency
35 | CC1CCC(C(C)(C)O)CC1 (configuration not stated) | inactive
36 | CC/C=C\CCOC(=O)CCCCC | inconclusive: 54.9 µM [activator, partial curve, poor fit]
37 | O=C1CCC(C2CCCCC2)CC1 | active: 43.6 µM
38 | CCCCS(=O)(=O)N[C@@H](Cc1ccc(OCCCCC2CCNCC2)cc1)C(=O)O | inactive
39 | O=C1OC(=O)c2ccccc21 | inactive
40 | CC(=O)NCCCS(=O)(=O)O | active: 18.9 µM
41 | CCCS(=O)c1ccc2nc(NC(=O)OC)[nH]c2c1 (configuration not stated) | inactive
42 | O=C(O)[C@H](O)[C@@H](O)[C@H](O)[C@H](O)CO | inconclusive: 21.8 µM [activator, single point] and inconclusive: 2.64 µM [activator, single point]

From PubChem BioAssay (Tox21)
